# Measurements: paper PMC12136788
# The other results are listed elsewhere or left out.
# T1: UNK ZnF1-3 (human, UniProt Q9C0B0 31-174)
# T1 sequence: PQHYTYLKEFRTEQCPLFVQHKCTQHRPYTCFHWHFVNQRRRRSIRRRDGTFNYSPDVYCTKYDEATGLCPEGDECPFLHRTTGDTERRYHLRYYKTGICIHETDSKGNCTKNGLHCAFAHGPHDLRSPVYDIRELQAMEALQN
# B1: chr12:48362563:48362564:+_ENSG00000134291_ENST00000256686|hu_hu|hu_hu_hu_mus_False|28_48 (ssRNA)
# RNA: GGGAGUUCUACAGUCCGACGAUCUCCGUCAAGCCCUUCGAUAGACCCUUGCGGGGGAAACUGUAAUCACUUUGUAUGGGGAAGGAAAAAAAAAGCCAAAAACUUUCUUUCUUUCUUGGGUGGGGUGAGGCGGGAGGGGGAGGUCAACAGAGGAUUGAGCAUCA
# B2: chr10:59467614:59467615:+_ENSMUSG00000044475_ENSMUST00000050516|mus_hu|FALSE|FALSE (ssRNA)
# RNA: GGGAGUUCUACAGUCCGACGAUCGAAGUCCUCUUCAUCUUCUUCAUGUUGAUAGGUCUGUUCUUGGACUGGAUUCUUCCUGUAAUUCCGGCCAUCAAUUCUUAUAAGCUGUGGACGCAGAACUUCCAUGACACUUUCUCCAAACAACAGAGGAUUGAGCAUCA
# B3: 153399267_153405588_643_CDS_ENSG00000157827_ENST00000288670|human|control|control (ssRNA)
# RNA: GGGAGUUCUACAGUCCGACGAUCAAUUUCCAGUUCUCUUAGCACUUGUGUAGAUUCUUGAACACGCCGUCUGAAUUUCUUCCUGGUUACAGCUGGAUCCAGAUAGCCUUUGAGCUUUUGAAUGUAUGUAUGGGGAGGAUUCUUCAACAGAGGAUUGAGCAUCA
# B4: chr8:106942660:106942661:-_ENSMUSG00000035770_ENSMUST00000041769|mus_mus|FALSE|FALSE (ssRNA)
# RNA: GGGAGUUCUACAGUCCGACGAUCCUUUUGUAUCAAGGUUUCAAAAUCACACUAUUAGGCAGUGUCUUUGCAAGAAUUCCUAGUUUCUGAGGUCAUUCACUUUGCCCUGGCUGCUACGGAGAUCAGUUGACCCUCCAUCAUGGUCAACAGAGGAUUGAGCAUCA
# B5: chr5:152452566:152452567:-_ENSMUSG00000033970_ENSMUST00000038131|mus_hu|FALSE|FALSE (ssRNA)
# RNA: GGGAGUUCUACAGUCCGACGAUCUUCACGUAGAAUACACAUAAUUCUUGUCUUUUUUCCAGCACCUGAUGGUCCGUACACUAACAGAUGAGGAAAGUCACCACACUGCACCAGGUUCCGCAGCUGGGCCGCCUGCUCCUUGUGCAACAGAGGAUUGAGCAUCA
# B6: chr2:135883765:135883766:+_ENSG00000115839_ENST00000442034|hu_mus|motif|central (ssRNA)
# RNA: GGGAGUUCUACAGUCCGACGAUCAGAAUAAACAUCAUUAUCUACAAUGAUCCCUUCUGUCAAAUGAGGCCACGUUGUUGCGGAAUGGAGUUCACUGAUAGGAUCUUCACAGGCACCAAAUGGCAACUUGCCGAACUCCAGGCCCAACAGAGGAUUGAGCAUCA
# B7: chr11:100452292:100452293:-_ENSMUSG00000014195_ENSMUST00000014339|perfect_dup|FALSE|FALSE (ssRNA)
# RNA: GGGAGUUCUACAGUCCGACGAUCCAUUUGUUUUUAUAUUGUUGGGGUCUAUCCCCAGGGCUUCUGUGUACAGUUCAUAUGCUAGUUUGUAAUUUCCUUCCUUAAAUGCUUUAUUCCCAUCUUCUUUCUUUGCUUUGAGUGCUUCAACAGAGGAUUGAGCAUCA
# B8: 83126042_83126162_1279_3pUTR_ENSMUSG00000058881_ENSMUST00000071233|mouse|control|control (ssRNA)
# RNA: GGGAGUUCUACAGUCCGACGAUCGUCCUCUGAGUCCCCCUCCUCAGCCGGGGCUCGAAUCCGGCUGGCUUCAACUUUACGGUGUAUGGCGUUAUGGGCGUUCAAGCUGUCCAGGUUUGUAAACAGGUUCCCGCACUUUGUGCACAACAGAGGAUUGAGCAUCA
# B9: 52727232_52727430_1307_CDS_ENSG00000163938_ENST00000418458|human|control|control (ssRNA)
# RNA: GGGAGUUCUACAGUCCGACGAUCUGAGGCACCUGUCCACUCAGACCACAGCAGUUUGGCAGCACCUUCAACAUUUGGGAUUCCACCUUUUUGGUGCAUACCUCUUCUCUGAGCAAGCACAGUAAAAAAUUCCAGAGAAUUCCUCAACAGAGGAUUGAGCAUCA
# B10: chr1:80263381:80263382:-_ENSMUSG00000004364_ENSMUST00000163119|mus_mus|motif|central (ssRNA)
# RNA: GGGAGUUCUACAGUCCGACGAUCAAUUUUGCAUCUCUUUUGCCAUUUUUGCUACCCAACUUACACAAUGCGCAAAGUGCGGAUAAGCAACACUACAGAAACACAUUUACAUCAACACUGAAGACCUGGGGAAAUGAAAUCCAACAACAGAGGAUUGAGCAUCA
# B11: chr1:225611761:225611762:-_ENSG00000143815_ENST00000272163|hu_mus|hu_hu_hu_mus_True|1_48 (ssRNA)
# RNA: GGGAGUUCUACAGUCCGACGAUCCCAGGCCAUCGGCCUCUGACCACUUCACCCUCAACAAACUUCCUACUUGGCAUUUUCUAAAAUUAACCUGCGCGCGCUCCGGCGGGAACUCCAGCCACUCCAGGACAGUCACCCGCACAGCAACAGAGGAUUGAGCAUCA
# B12: chr5:37310712:37310713:-_ENSG00000113569_ENST00000381843|hu_mus|motif|central (ssRNA)
# RNA: GGGAGUUCUACAGUCCGACGAUCACAAACUGCAUCGUCUGUGCUAUACAGAAGCGGACAGGUGUCCUGCAGAUGUAAGCGGAUGCCGUCUACGGCGGCGUUGUCUCUGAUGUAGCAGUUGAUAAGAGAAGCAAUUAAUGCUCCCAACAGAGGAUUGAGCAUCA
# B13: 69484204_69485806_73_CDS_ENSMUSG00000059796_ENSMUST00000163666|mouse|control|control (ssRNA)
# RNA: GGGAGUUCUACAGUCCGACGAUCGAGAUUCAUGUCAUCAAAGCUAUCCACAAUCUCGUUCCAGUUACUCUCGAUGACGCCUUCCGGCUCCAUCCCGUCGGGGCCAUUGUCUCUGGAUCGAGAAUCCUGACUCGCAGACAUGAUCAACAGAGGAUUGAGCAUCA
# B14: 91746361_91746481_1453_CDS_ENSG00000001630_ENST00000003100|human|control|control (ssRNA)
# RNA: GGGAGUUCUACAGUCCGACGAUCUCCAAAUGGCACAUAGGCAAACUUUUCCCCUGAUGCUGGGUUAUCCUGUAAGUAGCGAUCAGGAUUAAAGUCCAGGCGUUCUACCCAUGAGUCUUUAAGUCUUUGAUUGACAGUGGGAGACAACAGAGGAUUGAGCAUCA
# B15: chr3:150289932:150289933:+_ENSG00000144895_ENST00000460851|hu_hu|hu_hu_hu_mus_False|78_98 (ssRNA)
# RNA: GGGAGUUCUACAGUCCGACGAUCCUUGUAGUUUUUAACAUCCCACACUUCCAUUUGUCCCCUCAGAUUUCCAAAUCCAGCCAGCACUAAUAUAUGUCCAUGAGGGCUAUAGAAGGCUGCGUUGCGAGGACCAGUCCCAAAGUCCAACAGAGGAUUGAGCAUCA
# B16: chr3:176740097:176740098:-_ENSG00000177565_ENST00000430069|hu_mus|hu_hu_hu_mus_True|8_8 (ssRNA)
# RNA: GGGAGUUCUACAGUCCGACGAUCUGUUUUGUAUACCACAAAAGGAGGCACUUUCAGUAUCUGCAAAAGGUGUUUAGUCCUAAAACAUACUCACCUAGAGGAUAACUCAGGAAAACAAUCUGUUACACUAGUAUCUAUACUCCACAACAGAGGAUUGAGCAUCA
# B17: 153934122_153934242_4685_ncRNA_ENSMUSG00000028360_ENSMUST00000144677|mouse|control|control (ssRNA)
# RNA: GGGAGUUCUACAGUCCGACGAUCUCUAUUGGCACAAUAAAAAACUGACAGGUAAACAGGUUGUUUCGUAUAAAAGUUAGUGGAACUGACAAUCCAUAACAGGAUAGAAGAGCCACAGGUAAUGGGGCUUUCCAGCCCAGCACACAACAGAGGAUUGAGCAUCA
# B18: chrX:98862621:98862622:+_ENSMUSG00000034160_ENSMUST00000044475|mus_hu|mus_mus_mus_hu_False|58_88 (ssRNA)
# RNA: GGGAGUUCUACAGUCCGACGAUCCUGCAUCUCCUUUAGAGUGUUUCCCAUAUUGGAGUAGGCAUCAGCAAAGGUAGGACUAAUUCGAAUAGCCUCCUUAUAAUGCAUCAGAGCUUCCUGCAGUUUUCCCUGCUGCUGCAGUACCAACAGAGGAUUGAGCAUCA
# B19: chr4:117558906:117558907:-_ENSMUSG00000033379_ENSMUST00000036380|mus_mus|motif|central (ssRNA)
# RNA: GGGAGUUCUACAGUCCGACGAUCGGAUGAGCCGGUUAUAUAGAUUCCCCAGGCUGCUCCAACCACAGACAGAGAAAUUGCGGGGCCAAUGCCCAGAUUCGACCACAUGAAGGGGGAAGUUUCCGUCAGGAACCAUGCCACAUCCAACAGAGGAUUGAGCAUCA
# B20: 98667876_98670545_2651_CDS_ENSMUSG00000028556_ENSMUST00000030286|mouse|control|control (ssRNA)
# RNA: GGGAGUUCUACAGUCCGACGAUCUCCCAAACCCCCGGGACCUGGUGACGGUGAAUUAGGGUAAGUAUUUGGCAGGCGGAACACAUAAUAGAUAUACGAUGCGAGAAGGUUGUUUCUGCCAUGCUGGUCAUGAUUUCCUUCUAACAACAGAGGAUUGAGCAUCA
# B21: 111933410_111933530_464_3pUTR_ENSMUSG00000021270_ENSMUST00000094361|mouse|control|control (ssRNA)
# RNA: GGGAGUUCUACAGUCCGACGAUCUCUGCACCAGCCUGCAAAGCCUCCAUGAAGGCUUUGGUGCCCGACUUGGCAAUGGUGCCAAGGUUAUUGAUCAAGUCGGCCUUGGUCAUUCCAAUCCCGGUAUCCACAAUGGUCAGGGUUCAACAGAGGAUUGAGCAUCA
# B22: 33914443_33925304_586_3pUTR_ENSG00000006125_ENST00000262325|human|control|control (ssRNA)
# RNA: GGGAGUUCUACAGUCCGACGAUCCUUUCUCUUUUCUUUCUUUUCAUUGUUGAGUUCAGCUUUUAGUUCAAAUAUUUCUCCUUUUUUAUUGGUUGUGAAAUACUUGGAGUCAGUCAUGACUUUGGAUCUUUAAUGUGCACCGGACAACAGAGGAUUGAGCAUCA
# Biological target: T1, UNK ZnF1-3
# Test: nsRBNS (natural sequence RNA bind-n-seq); RBNS binding buffer (assumed for nsRBNS): 25 mM Tris pH 7.5, 150 mM KCl, 3 mM MgCl2, 0.01% Triton X-100, 500 ug/ml BSA, 20 U/ml SUPERase-In, 4 C; UNK is unkempt and MSI1 is Musashi-1; names of the RNAs are library labels; protein concentration not given here; high values mean tight binding
row,Binder,binding signal
1,B1,1.54 enrichment R
2,B2,0.492 enrichment R
3,B3,0.616 enrichment R
4,B4,0.691 enrichment R
5,B5,0.825 enrichment R
6,B6,1.27 enrichment R
7,B7,0.338 enrichment R
8,B8,1.01 enrichment R
9,B9,1.28 enrichment R
10,B10,1.35 enrichment R
11,B11,1.4 enrichment R
12,B12,0.509 enrichment R
13,B13,0.64 enrichment R
14,B14,0.861 enrichment R
15,B15,1.42 enrichment R
16,B16,0.797 enrichment R
17,B17,0.952 enrichment R
18,B18,0.89 enrichment R
19,B19,2.32 enrichment R
20,B20,1.19 enrichment R
21,B21,0.634 enrichment R
22,B22,0.321 enrichment R
